Screen size: about 420,000 compounds; about 50,000 (12%) were called active. Inconclusive means that the source gave no clear call. Such entries were picked first, then a sample of the others. Calls follow the shape of the dose curve; as a rule, active = well fitted inhibition curve with a large enough effect; inconclusive = small, poorly fitted or top-dose-only effect; inactive = flat fitted curve, though single readings scatter. Potencies of inconclusive entries are left out as doubtful fits.
Assay: qHTS for Inhibitors of human tyrosyl-DNA phosphodiesterase 1 (TDP1): qHTS in cells in presence of CPT; also: nearly all actives have a fitted effect of over 55% in size
Conditions: chicken DT40 Tdp1-/-;hTDP1 cells + 20 nM CPT, ATP luminescence, 48 h; activity change, negative = growth inhibition: at 46.2 µM (top of the series) unless noted
How it was run: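 Chicken DT40 Tdp1-/- cells stably complemented with human TDP1 were seeded at 400 cells/well in medium containing 20 nM camptothecin, exposed to pin-transferred compounds, and grown at 37 °C for at least 48 hr. Viability was read as ATP luminescence.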
% is scaled to controls: 0 for no effect and ±100 for the full control effect; potency is read from the fitted curve at half-maximal effect; tags tell the direction and shape of the fitted curve.

Row | SMILES | Potency | activity change, negative = growth inhibition
1 | COc1ccc(CNC(=O)c2cc(-c3ccc(Br)s3)nc3ccccc23)c(OC)c1 | inconclusive [inhibitor, single point] | 
2 | Cc1ccc(CNC(=O)Cc2ccc(-c3ccccc3)cc2)cc1 | active: 1.03 µM | 
3 | O=C(COC(=O)Cc1ccccc1F)Nc1cc(S(=O)(=O)N2CCOCC2)ccc1N1CCCC1 | inactive | 
4 | Cc1nnsc1C(=O)N1CCCC(C)(C(=O)NS(=O)(=O)C2CC2)C1 (stereo not drawn) | inconclusive [inhibitor, partial curve] | 
5 | O=C(OCn1nnc2ccccc2c1=O)c1cc(-c2ccccc2Cl)nc2ccccc12 | inactive | 
6 | Cc1ccc(S(=O)(=O)N2CCOCC2)cc1NC(=O)COC(=O)c1cccnc1Cl | inactive | 
7 | COC(=O)C1CCN(C(=O)/C=C/c2ccc3c(c2)OCO3)CC1 | inconclusive [inhibitor, single point] | 
8 | COCCN1CCc2nc(SCC(=O)Nc3ccc(C)c(Cl)c3)[nH]c(=O)c2C1 | inactive | 
9 | COc1ccc(N(CC(=O)N/N=C/c2ccccc2F)S(=O)(=O)c2ccccc2)cc1 | inconclusive [inhibitor, single point] | 
10 | COc1ccc(Nc2nc3ccc(C)cc3nc2-n2nc(C)cc2C)cc1Cl | inactive | 
11 | CCC(=O)NC(C)c1nc2ccccc2n1C (stereo not drawn) | inactive | 
12 | O=C(Nc1cccc(-n2cccn2)c1)C1CCCN(Cc2cc3ccccc3[nH]2)C1 (stereo not drawn) | active: 16.4 µM | 
13 | CC(C)(C)NC(=O)C(c1cc2ccccc2o1)n1c(=O)c(-c2cc3ccccc3[nH]2)nc2ccccc21 (stereo not drawn) | inconclusive [inhibitor, single point] | 
14 | Cc1c2c(nc3ccccc13)CCC(C)C2 (stereo not drawn) | inactive | 
15 | C[C@@H]1CN(C2CCN(Cc3nc(C(c4ccccc4)c4ccccc4)no3)CC2)C[C@H](C)O1 | inactive | 
16 | CC(C)CCOc1cccc(OCC(=O)Nc2ccncc2)c1 | inconclusive [inhibitor, single point] | 
17 | COc1ccccc1N1CCN(C(=O)Cn2ncc3c2-c2cc(C)ccc2OC3)CC1 | active: 25.9 µM | 
18 | COc1ccc2c(Cl)cc(NC(=O)Nc3c(C)cccc3C)nc2c1 | active: 13 µM | 
19 | CC(C)C[C@H]1CN=C(Nc2ccccc2)N1CC1CCCCC1 | inconclusive [inhibitor, single point] | 
20 | COC(=O)c1cc(NC(=O)Cc2coc3cc(OC)ccc23)cc(C(=O)OC)c1 | active: 23.1 µM | 
21 | CN(C)c1ccc(CN(C(=O)/C=C/c2ccccc2Cl)C2CCS(=O)(=O)C2)cc1 (stereo not drawn) | inconclusive [inhibitor, single point] | 
22 | COc1ccccc1NC(=O)CC1Sc2ccc(C(F)(F)F)cc2NC1=O (stereo not drawn) | inactive | 
23 | CN(C1CCCCC1)S(=O)(=O)c1ccc2c(c1)c(=O)c(C(=O)N1CCc3ccccc3C1)cn2C | inconclusive [inhibitor, single point] | 
24 | Cc1c(NC(=O)c2noc(C(C)C)c2[N+](=O)[O-])c(=O)n(-c2ccccc2)n1C |  | inconclusive: -34.5% [inhibitor]
25 | CCCCn1nc(C(=O)N(C)CC(=O)Nc2cccc(F)c2)c2ccccc2c1=O | inconclusive [inhibitor, single point] | 

Row | SMILES | Potency | activity change, negative = growth inhibition
26 | CCN(CC)S(=O)(=O)c1cccc(C(=O)c2c(C)cc3ccccn23)c1 | inconclusive [inhibitor, single point] | 
27 | Cc1cc(N2CCN(C)CC2)nc2ccc(NC(=S)NCCC(C)C)cc12 | active: 23.1 µM | 
28 | O=C(CNC1CCCCCC1)Nc1ccccc1N1CCCCC1 | inconclusive [inhibitor, single point] | 
29 | COc1ccc(-c2onc(C)c2C)cc1S(=O)(=O)NCc1cccs1 | inconclusive [inhibitor, single point] | 
30 | CCOC(=O)C1=C(N)n2c(s/c(=C\c3cccnc3)c2=O)=C(C(=O)OC)C1c1cccnc1 (stereo not drawn) | inactive | 
31 | OC(c1ccc(F)cc1)c1ncc(-c2ccc(Oc3ccccc3)cc2)[nH]1 (stereo not drawn) | inconclusive [inhibitor, single point] | 
32 | CC1=C(C(=O)OCc2ccc(C)cc2)C(c2ccccc2C(F)(F)F)CC(=O)N1 (stereo not drawn) | active: 23.1 µM | 
33 | Cc1cc(C2=NNC(=Nc3ccc(S(=O)(=O)N4CCOCC4)cc3)SC2)c(C)n1CC1CCCO1 (stereo not drawn) | active: 5.17 µM | 
34 | Cc1cc(OC(=O)c2ccc(C)c(C)c2)c([N+](=O)[O-])c(=O)[nH]1 | inactive | 
35 | CCn1ncc(Br)c1C(=O)Nc1cc(C)cc(C)c1 | inconclusive [inhibitor, single point] | 
36 | CCOC(=O)c1cnc(SCC(=O)Nc2ccc3c(c2)OCCO3)nc1N | inconclusive [inhibitor, single point] | 
37 | CN(C)CCNC(=O)c1ccc(-c2cn3c(-c4ccc(Oc5ccccc5)cc4)cnc3cn2)cc1 | inconclusive [inhibitor, single point] | 
38 | COc1ccc(Nc2ncnc3c2cnn3Cc2ccccc2)cc1 | inconclusive [inhibitor, single point] | 
39 | CSc1sc(C(=O)Nc2ccc(F)cc2F)c2c1C=CCC2 |  | inconclusive: -27% [inhibitor]
40 | COc1ccc(OC)c(NC(=O)NNC(=O)COc2ccc(-c3ccccc3)cc2)c1 | inactive | 
41 | CC1CCC2(CC1)NC(=O)N(CC(=O)N1CCN(C(=O)c3cccs3)CC1)C2=O (stereo not drawn) | inactive | 
42 | CC(C)(C)NC(=O)CSc1nnc(-c2ccncc2)n1Cc1ccccc1 | inactive | 
43 | CCc1ccc(-c2nn(-c3ccccc3C)cc2C(=O)N2CCN(C3CCS(=O)(=O)C3)CC2)cc1 (stereo not drawn) | inactive | 
44 | NC(=O)CCn1c2ccccc2c2ccccc21 | inactive | 
45 | CC(=O)C1=CCC(c2ccccc2Cl)N(S(=O)(=O)c2ccc(C)cc2)C1 (stereo not drawn) | inconclusive [inhibitor, single point] | 
46 | CCOC(=O)Cc1csc(NS(=O)(=O)c2ccc3c4c(cccc24)C(=O)N3CC)n1 | inactive | 
47 | O=C1c2ccccc2C(=O)C1C(=O)C1CC1 | inactive | 
48 | CCC(C)[C@H]1CN=C(N)N1CCc1cccc2ccccc12 (stereo partly drawn) | active: 1.84 µM | 
49 | Cc1cccc(C)c1OCc1cc(C(=O)N(C)CCc2ccccn2)no1 | inconclusive [inhibitor, single point] | 
50 | CC(=O)C(Cc1ccccc1)NC(=O)COC(=O)c1cc(S(=O)(=O)N2CCOCC2)ccc1F (stereo not drawn) | inactive | 

Row | SMILES | Potency | activity change, negative = growth inhibition
51 | CCOC(=O)c1sc2ncn(CC(=O)Nc3ccc(F)cc3F)c(=O)c2c1C | inactive | 
52 | CCCC1CCC(C(=O)Nn2c(C)nc3ccccc3c2=O)CC1 (stereo not drawn) | inactive | 
53 | Cc1ccccc1NC(=O)/C=C/c1ccc([N+](=O)[O-])s1 | active: 0.92 µM | 
54 | C#C[C@]1(O)CC[C@H]2[C@@H]3CCC4=CC(=O)CC[C@@H]4[C@H]3CC[C@@]21C | inconclusive [inhibitor, single point] | 
55 | COc1cccc(/C=C(/C(=O)OCC(=O)NC2CCCCCCC2)c2ccccc2)c1 | inconclusive [inhibitor, single point] | 
56 | Cc1c(N2C(=O)/C(=C3/C(=O)N(C)c4ccccc43)SC2=S)c(=O)n(-c2ccccc2)n1C | inconclusive [inhibitor, single point] | 
57 | Clc1ccc2c(SCC3CO3)c3ccccc3nc2c1 (stereo not drawn) | active: 0.461 µM | 
58 | CC(=O)N1c2ccc(S(=O)(=O)NCCC(=O)Nc3ccc(OC(F)(F)F)cc3)cc2CC1C (stereo not drawn) | active: 18.4 µM | 
59 | CCCCNC(=S)N(C)/N=C/c1ccc(OCc2ccc(C(=O)OC)cc2)c(OC)c1 | inconclusive [inhibitor, single point] | 
60 | CCCCOc1ccc(C(=O)NCC(=O)NCC(c2ccc(OC)cc2)N2CCOCC2)cc1 (stereo not drawn) | inconclusive [inhibitor, single point] | 
61 | CCc1c(C2(O)CCCCC2)[nH]c2ccc(C#N)cc12 | inconclusive [inhibitor, partial curve] | 
62 | Cc1cc(Cl)c(S(=O)(=O)Nc2ccon2)cc1OCC(=O)NC1CCCCC1 | inactive | 
63 | Cc1cccc(OCCC(=O)Nc2ccc(C)c(S(=O)(=O)N3CCCCC3)c2)c1 | inconclusive [inhibitor, partial curve, poor fit] | 
64 | CN(CCOc1ccccc1)C(=O)c1cc(S(=O)(=O)N2CCCCC2)ccc1Cl | inconclusive [inhibitor, single point] | 
65 | C=CCn1c(Cc2cccs2)nnc1SC/C=C/c1ccccc1 | inconclusive [inhibitor, partial curve, poor fit] | 
66 | CN(C)c1ccc(C(O)c2cc3ccccc3s2)cc1 (stereo not drawn) | inactive | 
67 | CC(C)CC(=O)NC(NC(=O)CC(C)C)c1cccc([N+](=O)[O-])c1 | inactive | 
68 | CCOc1ccc(-n2c(C)c(C(C)=O)c3cc(O)ccc32)cc1 | inconclusive [inhibitor, full curve, poor fit] | 
69 | COc1ccc(OC)c(CNC(=O)CCCn2c(=O)c3cccn3c3cccnc32)c1 | inactive | 
70 | COc1ccc(C(C)=O)cc1COC(=O)Cc1n[nH]c(=O)c2ccccc12 | inconclusive [inhibitor, partial curve] | 
71 | N#Cc1nc(Cc2ccccc2)oc1N1CCN(c2ccccc2)CC1 | active: 10.3 µM | 
72 | O=C(NCc1cc(C(F)(F)F)cc(C(F)(F)F)c1)C1CC(c2cccc([N+](=O)[O-])c2)=NO1 (stereo not drawn) | inconclusive [inhibitor, single point] | 
73 | S=c1[nH]nc(C2CCCCC2)n1/N=C/c1ccc(Br)cc1 | inconclusive [inhibitor, partial curve] | 

From PubChem BioAssay AID686979 (National Center for Advancing Translational Sciences (NCATS), 2013)
